Experimental data from PubChem BioAssay AID493035 (The Scripps Research Institute Molecular Screening Center, 2011).
The whole screen tested about 2,000 compounds, of which about 45 (2%) were called active.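 Rule for the calls: active = inhibition above the mean of all tested compounds plus 3 SD (cut at about 49% in these data); inactive = the rest.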 This is one part of the list.

The compounds below were run against Perilipin-5 (Homo sapiens) + 1-acylglycerol-3-phosphate O-acyltransferase ABHD5 (Homo sapiens) (UniProt Q00G26+Q8WTS1) (assay: ABHD5-PLIN5 interaction inhibitors, pilot screen, cell lysate, split luciferase complementation, luminescence, NIH validation set (AID 493035;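 note: 0% = DMSO only wells while the 100% control is not stated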)). Conditions: split G. princeps luciferase complementation, lysates, 4 h; at 7.9 µM, stronger effect = higher value.
Chain of UniProt Q00G26 (Q00G26 whole entry, looked up): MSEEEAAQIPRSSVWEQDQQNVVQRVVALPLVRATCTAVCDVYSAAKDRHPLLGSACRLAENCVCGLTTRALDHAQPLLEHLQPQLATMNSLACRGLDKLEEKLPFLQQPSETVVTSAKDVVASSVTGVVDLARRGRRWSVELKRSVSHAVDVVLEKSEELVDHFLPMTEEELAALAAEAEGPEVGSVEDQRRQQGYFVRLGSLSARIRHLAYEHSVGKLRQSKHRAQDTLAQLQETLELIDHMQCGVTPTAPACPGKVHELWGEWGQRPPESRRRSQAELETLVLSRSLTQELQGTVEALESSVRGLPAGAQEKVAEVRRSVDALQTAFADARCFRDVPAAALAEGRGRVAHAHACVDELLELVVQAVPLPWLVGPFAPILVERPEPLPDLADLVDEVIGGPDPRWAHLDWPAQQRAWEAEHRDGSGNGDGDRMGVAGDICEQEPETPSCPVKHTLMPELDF
Chain of UniProt Q00G26 (Q8WTS1 whole entry, looked up): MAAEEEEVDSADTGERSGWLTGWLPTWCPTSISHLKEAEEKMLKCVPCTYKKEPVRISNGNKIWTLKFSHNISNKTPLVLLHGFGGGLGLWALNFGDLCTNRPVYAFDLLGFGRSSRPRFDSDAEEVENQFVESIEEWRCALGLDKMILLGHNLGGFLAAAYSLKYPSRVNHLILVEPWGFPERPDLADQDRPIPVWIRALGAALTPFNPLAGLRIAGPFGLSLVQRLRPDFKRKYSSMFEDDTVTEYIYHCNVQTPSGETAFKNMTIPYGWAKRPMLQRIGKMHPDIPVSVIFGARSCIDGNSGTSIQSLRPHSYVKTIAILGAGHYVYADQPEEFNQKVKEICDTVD
`CCCCC[C@H](O)/C=C/C1=C(CCCCCCC(=O)O)C(=O)CC1` was tested, and the inhibition was inactive: 31.5%. In the case of `Cc1ccc(Nc2ncccc2C(=O)O)cc1C`, the inhibition is reported as inactive: -2.37%. For `O=C(CCCCCCCC(=O)c1ccccc1)c1ccccc1`, the inhibition was inactive: -4.5%. For `Cc1cc(=O)[nH]c(=S)[nH]1`, the inhibition was inactive: 4.14%. For `C=C(C)Cn1c(NCCOC)nc2c1c(=O)[nH]c(=O)n2C`, the inhibition was inactive: -5.42%. In the case of `CC(=O)c1ccc(CCCCCCCCCC(=O)O)s1`, the inhibition is reported as inactive: -4.85%. With `COc1cc2c(cc1OC)/C(=C/c1ccc(Cl)cc1)C(=O)OC2` the inhibition was inactive: 33.3%. For `C=CCOc1ccc(C(=O)CC)cc1OC`, the inhibition was inactive: -3.26%. With `Cn1c(=O)[nH]c2nnc(-c3ccc(Cl)c(Cl)c3)nc2c1=O` the inhibition was inactive: 1.39%. `CC(C(=O)O)c1ccc(-c2ccccc2)c(F)c1` (stereo unspecified) was tested, and the inhibition was inactive: 0.19%. In the case of `Cn1c(=O)c2nc3ccccc3nc2n(C)c1=O`, the inhibition is reported as inactive: -9.31%. `COc1ccc(/C=N\NC(=O)CCc2c(C)n[nH]c2C)c(OC)c1OC` was tested, and the inhibition was inactive: -16.6%. `O=P(O)(O)CP(=O)(O)O` was tested, and the inhibition was inactive: -0.22%. In the case of `O=C(CCCC(=O)OCC1CCCO1)OCC1CCCO1` (stereo unspecified), the inhibition is reported as inactive: -12.9%. `Cc1cc(=O)oc(C)c1C(=O)NCCC(C)C` was tested, and the inhibition was inactive: -4.73%. `CC(=O)N1N=C(c2cccs2)CC1c1ccc(C)o1` (stereo unspecified) was tested, and the inhibition was inactive: -5.76%. With `O=C(Cc1c[nH]c2ccccc12)OCCOC(=O)Cc1c[nH]c2ccccc12` the inhibition was inactive: 2.96%. With `COc1ccc2[nH]c3c(=O)n(/N=C/[C@H]4C(C)C=C(C)CC4C)c(=O)[nH]c3c2c1` (stereo partly specified) the inhibition was inactive: 22.8%. For `COc1cc2c(cc1OC)C(c1cc(OC)c(OC)c(OC)c1)NCC2` (stereo unspecified), the inhibition was inactive: -1.51%. `CN(C)C(=O)C(CCN1CCC(O)(c2ccc(Cl)cc2)CC1)(c1ccccc1)c1ccccc1` was tested, and the inhibition was inactive: -12.5%. For `CSCCC(NC(=O)OC(C)(C)C)C(=O)Oc1ccc2c(=O)c(-c3ccc4c(c3)OCCO4)coc2c1` (stereo unspecified), the inhibition was active: 69.1%.
